Measurements reported in the supplement of paper PMC12217912.
Some of the results follow. The full chains were built here from the parent and the listed change. Inactive controls read about 0.05.

B1: TEV protease; numbered along this chain (parent)
chain: MGESLFKGPRDYNPISSSICHLTNESDGHTTSLYGIGFGPFIITNKHLFRRNNGTLVVQSLHGVFKVKDTTTLQQHLVDGRDMIIIRMPKDFPPFPQKLKFREPQREERICLVTTNFQTKSMSSMVSDTSCTFPSGDGIFWKHWIQTKDGQCGSPLVSTRDGFIVGIHSASNFTNTNNYFTSVPKNFMELLTNQEAQQWVSGWRLNADSVLWGGHKVFMVKPEEPFQPVKEATQL

Variants of: B1
Experiment: raw area under fraction-flipped curve 0-4 h after induction (AUC4h, not background-subtracted), DNA-recorder readout of cleavage of the substrate (dimensionless); higher = more cleavage of the substrate by the protease variant
Conditions: temperature: 34 °C; time window: 0-4 h after rhamnose induction
Procedure: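 In vivo DNA recorder in E. coli TOP10(DE3) ΔrhaA at 34 °C. Each TEVp single-site mutant (parent TEVp 0) is paired with a single-site variant of the 7-mer TEVs (canonical ENLYFQ|S). The substrate sits between flexible linkers in a Bxb1-sfGFP-TEVs-SsrA fusion, so cleavage stabilises Bxb1 and speeds flipping of a recombination array, read by NGS. The value is the raw area under the fraction-flipped curve over 0-4 h after rhamnose induction (AUC4h), with ≥20 reads per time point. It is not background-subtracted; inactive controls average about 0.047.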
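Further: Bxb1 expression induced with 0.2% (w/v) L-rhamnose at OD600 near 0.5, cultures sampled hourly, flipped fraction per protease–substrate barcode pair counted by paired-end Illumina sequencing.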

| Variant | area with substrate ENAYFQS | area with substrate ENCYFQS | area with substrate ENEYFQS | area with substrate ENHYFQS | area with substrate ENNYFQS | area with substrate ENRYFQS | area with substrate ENDYFQS | area with substrate ENFYFQS | area with substrate ENKYFQS | area with substrate ENMYFQS | area with substrate ENPYFQS | area with substrate ENQYFQS | area with substrate ENSYFQS | area with substrate ENTYFQS | area with substrate ENGYFQS | area with substrate ENIYFQS | area with substrate ENVYFQS | area with substrate ENWYFQS | area with substrate ENYYFQS |
| --- | --- | --- | --- | --- | --- | --- | --- | --- | --- | --- | --- | --- | --- | --- | --- | --- | --- | --- | --- |
| N175W | 0.0779 | 0.036 | 0.0909 | 0.0524 | 0.0563 | 0.0471 |  |  |  |  |  |  |  |  |  |  |  |  |  |
| Q151A | 0.0602 |  | 0.0646 | 0.0826 | 0.0576 |  | 0.0606 | 0.0674 | 0.0484 | 0.0704 | 0.0619 | 0.0556 | 0.0728 | 0.0626 |  |  |  |  |  |
| Q151R | 0.0653 | 0.0693 |  | 0.0637 | 0.071 | 0.0606 | 0.0696 |  | 0.0391 |  | 0.0499 | 0.0593 |  | 0.058 | 0.0702 | 0.0844 | 0.0571 |  |  |
| S169Q | 0.0514 | 0.0524 | 0.0562 | 0.0593 | 0.0702 |  | 0.0606 | 0.0569 |  |  | 0.0705 | 0.0596 | 0.0629 | 0.0567 | 0.0555 | 0.0723 | 0.057 | 0.0676 | 0.0521 |
| S169G | 0.0745 |  | 0.0322 | 0.0664 |  | 0.0511 | 0.058 | 0.064 | 0.0598 | 0.0567 |  | 0.053 | 0.0478 |  |  |  | 0.0588 |  | 0.0592 |
| V183S | 0.0767 |  | 0.0535 | 0.0622 |  |  | 0.0627 | 0.0608 | 0.0604 |  | 0.0683 | 0.0569 | 0.0553 | 0.0526 |  | 0.114 | 0.076 |  | 0.0509 |
| P184T | 0.054 | 0.06 | 0.0559 | 0.0557 | 0.0681 |  | 0.0676 | 0.0748 |  |  | 0.051 | 0.0542 | 0.0582 | 0.0668 | 0.068 | 0.0878 |  |  |  |
| P184D | 0.0547 |  | 0.0524 | 0.0437 | 0.0653 |  | 0.0389 |  |  |  |  | 0.054 | 0.0511 |  | 0.0643 | 0.044 |  |  |  |
| S171T | 0.0411 |  | 0.0477 |  |  | 0.0653 |  | 0.0614 | 0.0729 |  |  |  |  |  | 0.055 |  | 0.0733 |  |  |
| S171P | 0.0654 | 0.0552 | 0.0559 |  | 0.066 | 0.069 | 0.0453 | 0.0869 | 0.0523 |  | 0.0528 | 0.0647 | 0.0472 | 0.0538 | 0.0587 | 0.0765 | 0.0525 | 0.0429 |  |
| S171D | 0.0524 | 0.0649 | 0.0609 | 0.0575 | 0.0665 | 0.0532 | 0.0635 | 0.075 | 0.0628 | 0.0632 | 0.0565 | 0.0687 | 0.0536 | 0.0433 | 0.0595 |  | 0.0628 |  | 0.0618 |
| K185Q | 0.0629 | 0.0648 | 0.0551 | 0.0761 | 0.0633 | 0.0667 | 0.0766 |  | 0.0601 |  | 0.06 | 0.0698 | 0.0589 | 0.0651 | 0.0704 | 0.095 | 0.0773 |  |  |
| K185W | 0.0516 | 0.0645 | 0.0703 | 0.064 | 0.0681 | 0.0564 | 0.0683 | 0.0561 |  | 0.0372 | 0.0478 | 0.0642 | 0.0519 | 0.064 | 0.0685 | 0.0963 | 0.0894 | 0.0363 | 0.062 |
